Assay results as given in the supplement of paper PMC8728848.
The other results are listed elsewhere or left out.

Experiments:
Experiment in all cases: glycan array binding signal (z-score within array); higher = stronger binding
Conditions in all cases: glycan notation: IUPAC condensed, linker removed
[1] = biological target: Gal(b1-4)GlcNAc(b1-3)Gal(b1-3)GlcNAc
How it was run: (§1)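 The binding signal is a Z-score computed within each array. Data were drawn from 3228 arrays in the Consortium for Functional Glycomics database, restricted to those with a known protein sequence. Scores were averaged over arrays of the same protein sequence at different concentrations or buffers, and over linkers, and negative values can be taken as non-binding.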

[2] = biological target: Gal(b1-4)GlcNAc(b1-3)Gal(b1-4)Glc
How it was run: as §1

[3] = biological target: Gal(b1-4)GlcNAc(b1-3)Gal(b1-4)GlcNAc
How it was run: as §1

[4] = biological target: Gal(b1-4)GlcNAc(b1-3)Gal(b1-4)GlcNAc(b1-2)Man(a1-3)[Gal(b1-4)GlcNAc(b1-3)Gal(b1-4)GlcNAc(b1-2)Man(a1-6)]Man(b1-4)GlcNAc(b1-4)GlcNAc
How it was run: as §1

[5] = biological target: Gal(b1-4)GlcNAc(b1-3)Gal(b1-4)GlcNAc(b1-2)Man(a1-3)[Gal(b1-4)GlcNAc(b1-3)Gal(b1-4)GlcNAc(b1-2)Man(a1-6)]Man(b1-4)GlcNAc(b1-4)[Fuc(a1-6)]GlcNAc
How it was run: as §1

[6] = biological target: Gal(b1-4)GlcNAc(b1-3)Gal(b1-4)GlcNAc(b1-2)[Gal(b1-4)GlcNAc(b1-3)Gal(b1-4)GlcNAc(b1-6)]Man(a1-6)[Gal(b1-4)GlcNAc(b1-3)Gal(b1-4)GlcNAc(b1-2)Man(a1-3)]Man(b1-4)GlcNAc(b1-4)GlcNAc
How it was run: as §1

[7] = biological target: Gal(b1-4)GlcNAc(b1-3)Gal(b1-4)GlcNAc(b1-2)[Gal(b1-4)GlcNAc(b1-3)Gal(b1-4)GlcNAc(b1-6)]Man(a1-6)[Gal(b1-4)GlcNAc(b1-3)Gal(b1-4)GlcNAc(b1-2)Man(a1-3)]Man(b1-4)GlcNAc(b1-4)[Fuc(a1-6)]GlcNAc
How it was run: as §1

[8] = biological target: Gal(b1-4)GlcNAc(b1-3)Gal(b1-4)GlcNAc(b1-3)Gal(b1-4)GlcNAc
How it was run: as §1

[9] = biological target: Gal(b1-4)GlcNAc(b1-3)Gal(b1-4)GlcNAc(b1-3)Gal(b1-4)GlcNAc(b1-2)Man(a1-3)[Gal(b1-4)GlcNAc(b1-3)Gal(b1-4)GlcNAc(b1-3)Gal(b1-4)GlcNAc(b1-2)Man(a1-6)]Man(b1-4)GlcNAc(b1-4)GlcNAc
How it was run: as §1

[10] = biological target: Gal(b1-4)GlcNAc(b1-3)Gal(b1-4)GlcNAc(b1-3)Gal(b1-4)GlcNAc(b1-2)Man(a1-3)[Gal(b1-4)GlcNAc(b1-3)Gal(b1-4)GlcNAc(b1-3)Gal(b1-4)GlcNAc(b1-2)Man(a1-6)]Man(b1-4)GlcNAc(b1-4)[Fuc(a1-6)]GlcNAc
How it was run: as §1

[11] = biological target: Gal(b1-4)GlcNAc(b1-3)Gal(b1-4)GlcNAc(b1-3)Gal(b1-4)GlcNAc(b1-2)[Gal(b1-4)GlcNAc(b1-3)Gal(b1-4)GlcNAc(b1-3)Gal(b1-4)GlcNAc(b1-6)]Man(a1-6)[Gal(b1-4)GlcNAc(b1-3)Gal(b1-4)GlcNAc(b1-3)Gal(b1-4)GlcNAc(b1-2)Man(a1-3)]Man(b1-4)GlcNAc(b1-4)[Fuc(a1-6)]GlcNAc
How it was run: as §1

[12] = biological target: Gal(b1-4)GlcNAc(b1-3)Gal(b1-4)GlcNAc(b1-3)Gal(b1-4)GlcNAc(b1-3)Gal(b1-4)GlcNAc(b1-2)Man(a1-3)[Gal(b1-4)GlcNAc(b1-3)Gal(b1-4)GlcNAc(b1-3)Gal(b1-4)GlcNAc(b1-3)Gal(b1-4)GlcNAc(b1-2)Man(a1-6)]Man(b1-4)GlcNAc(b1-4)GlcNAc
How it was run: as §1

[13] = biological target: Gal(b1-4)GlcNAc(b1-3)Gal(b1-4)GlcNAc(b1-3)Gal(b1-4)GlcNAc(b1-3)Gal(b1-4)GlcNAc(b1-2)Man(a1-3)[Gal(b1-4)GlcNAc(b1-3)Gal(b1-4)GlcNAc(b1-3)Gal(b1-4)GlcNAc(b1-3)Gal(b1-4)GlcNAc(b1-2)Man(a1-6)]Man(b1-4)GlcNAc(b1-4)[Fuc(a1-6)]GlcNAc
How it was run: as §1

[14] = biological target: Gal(b1-4)GlcNAc(b1-3)Gal(b1-4)GlcNAc(b1-3)Gal(b1-4)GlcNAc(b1-3)Gal(b1-4)GlcNAc(b1-2)[Gal(b1-4)GlcNAc(b1-3)Gal(b1-4)GlcNAc(b1-3)Gal(b1-4)GlcNAc(b1-3)Gal(b1-4)GlcNAc(b1-6)]Man(a1-6)[Gal(b1-4)GlcNAc(b1-3)Gal(b1-4)GlcNAc(b1-3)Gal(b1-4)GlcNAc(b1-3)Gal(b1-4)GlcNAc(b1-2)Man(a1-3)]Man(b1-4)GlcNAc(b1-4)[Fuc(a1-6)]GlcNAc
How it was run: as §1

[15] = biological target: Gal(b1-4)GlcNAc(b1-3)Gal(b1-4)GlcNAc(b1-3)Gal(b1-4)GlcNAc(b1-3)Gal(b1-4)GlcNAc(b1-3)Gal(b1-4)GlcNAc(b1-2)Man(a1-3)[Gal(b1-4)GlcNAc(b1-3)Gal(b1-4)GlcNAc(b1-3)Gal(b1-4)GlcNAc(b1-3)Gal(b1-4)GlcNAc(b1-3)Gal(b1-4)GlcNAc(b1-2)Man(a1-6)]Man(b1-4)GlcNAc(b1-4)GlcNAc
How it was run: as §1

[16] = biological target: Gal(b1-4)GlcNAc(b1-3)Gal(b1-4)GlcNAc(b1-3)Gal(b1-4)GlcNAc(b1-3)Gal(b1-4)GlcNAc(b1-3)Gal(b1-4)GlcNAc(b1-2)Man(a1-3)[Gal(b1-4)GlcNAc(b1-3)Gal(b1-4)GlcNAc(b1-3)Gal(b1-4)GlcNAc(b1-3)Gal(b1-4)GlcNAc(b1-3)Gal(b1-4)GlcNAc(b1-2)Man(a1-6)]Man(b1-4)GlcNAc(b1-4)[Fuc(a1-6)]GlcNAc
How it was run: as §1

[17] = biological target: Gal(b1-4)GlcNAc(b1-3)Gal(b1-4)GlcNAc(b1-3)Gal(b1-4)GlcNAc(b1-3)Gal(b1-4)GlcNAc(b1-3)Gal(b1-4)GlcNAc(b1-2)[Gal(b1-4)GlcNAc(b1-3)Gal(b1-4)GlcNAc(b1-3)Gal(b1-4)GlcNAc(b1-3)Gal(b1-4)GlcNAc(b1-3)Gal(b1-4)GlcNAc(b1-6)]Man(a1-6)[Gal(b1-4)GlcNAc(b1-3)Gal(b1-4)GlcNAc(b1-3)Gal(b1-4)GlcNAc(b1-3)Gal(b1-4)GlcNAc(b1-3)Gal(b1-4)GlcNAc(b1-2)Man(a1-3)]Man(b1-4)GlcNAc(b1-4)[Fuc(a1-6)]GlcNAc
How it was run: as §1

[18] = biological target: Gal(b1-4)GlcNAc(b1-3)Gal(b1-4)GlcNAc(b1-3)Gal(b1-4)GlcNAc(b1-3)Gal(b1-4)GlcNAc(b1-3)Gal(b1-4)GlcNAc(b1-3)Gal(b1-4)GlcNAc(b1-2)Man(a1-3)[Gal(b1-4)GlcNAc(b1-3)Gal(b1-4)GlcNAc(b1-3)Gal(b1-4)GlcNAc(b1-3)Gal(b1-4)GlcNAc(b1-3)Gal(b1-4)GlcNAc(b1-3)Gal(b1-4)GlcNAc(b1-2)Man(a1-6)]Man(b1-4)GlcNAc(b1-4)GlcNAc
How it was run: as §1

[19] = biological target: Gal(b1-4)GlcNAc(b1-3)Gal(b1-4)GlcNAc(b1-3)GalNAc
How it was run: as §1

B1: Sebin1 (Coprinopsis cinerea), A8PEE3 (protein)
chain: MTSPFYAHIHNVQDDNTWRFTLIFANRATADEWWRAISEAPANTSIAKSITRVTPQYYTHDVNIWNIWNFFADGNIKSISERFRGRLFIVLENDRGGRGITVIPPVPIVDHVSGNWFYIRSKTAPHLFWYYDERRSSIYASKEKRTRFKISIRNPSSQTPKNAIMINTDDVTIHIKENLYVGVDNNLGHIIPTRAYRTFKFGELESGAIAGFDVVENIEERCSSTFDGASLSISGPDSSSPGEPWELV
In the case of B1, the “glycan array binding signal (z-score)” value [1] is reported as -0.381, the “glycan array binding signal (z-score)” value [2] is reported as -0.182 and the “glycan array binding signal (z-score)” value [3] is reported as -0.364. For the same binder, the “glycan array binding signal (z-score)” value [4] was 0.237, the “glycan array binding signal (z-score)” value [5] was 0.498 and the “glycan array binding signal (z-score)” value [6] was -0.077. For the same binder, the “glycan array binding signal (z-score)” value [7] was 1.28, the “glycan array binding signal (z-score)” value [8] was -0.366 and the “glycan array binding signal (z-score)” value [9] was 0.354. The “glycan array binding signal (z-score)” value [10] was 13.4, the “glycan array binding signal (z-score)” value [11] was 1.31 and the “glycan array binding signal (z-score)” value [12] was 0.154. The “glycan array binding signal (z-score)” value [13] was 6.4, the “glycan array binding signal (z-score)” value [14] was 2.44 and the “glycan array binding signal (z-score)” value [15] was 0.513. The “glycan array binding signal (z-score)” value [16] was 2.62, the “glycan array binding signal (z-score)” value [17] was 2.27 and the “glycan array binding signal (z-score)” value [18] was 0.452. The “glycan array binding signal (z-score)” value [19] was -0.309.
